Experimental data from PubChem BioAssay AID624417 (National Center for Advancing Translational Sciences (NCATS), 2012).
In all, about 410,000 compounds went through this assay and about 6,400 (1.6%) were called active. Inconclusive means that the source gave no clear call. Such entries were picked first, then a sample of the others. The call rests on the fitted dose curve; in most records, active means well fitted inhibition curve with a large enough effect; inconclusive means small, poorly fitted or top-dose-only effect; inactive means no such curve, though single readings can be large or run the other way. A potency beside an inconclusive call is a rough fit, not a confirmed value.

target: Glucagon-like peptide 1 receptor (Homo sapiens) (UniProt P43220); experiment: qHTS of GLP-1 Receptor Inverse Agonists (Inhibition Mode); conditions: HEK293 GLP-1R CRE-luciferase, luminescence, 24 h, GLP-1R form is constitutively active; activity change, negative = inhibition: at 38.3 µM (top of the series) unless noted; further: nearly all actives have a fitted effect of over 55% in size
UniProt P43220, sequence (P43220 whole entry, looked up): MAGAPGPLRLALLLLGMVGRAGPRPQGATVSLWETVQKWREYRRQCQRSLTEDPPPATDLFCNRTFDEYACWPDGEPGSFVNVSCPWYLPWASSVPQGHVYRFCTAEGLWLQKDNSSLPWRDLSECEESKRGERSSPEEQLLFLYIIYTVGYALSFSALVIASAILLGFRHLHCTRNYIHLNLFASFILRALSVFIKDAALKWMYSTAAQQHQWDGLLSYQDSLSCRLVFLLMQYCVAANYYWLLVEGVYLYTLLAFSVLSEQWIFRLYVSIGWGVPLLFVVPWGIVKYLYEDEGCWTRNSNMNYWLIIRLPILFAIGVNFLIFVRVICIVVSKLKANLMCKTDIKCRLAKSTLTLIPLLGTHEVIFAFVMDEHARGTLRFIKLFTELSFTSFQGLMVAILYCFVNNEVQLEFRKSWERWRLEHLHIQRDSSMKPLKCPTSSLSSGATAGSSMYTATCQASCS
Method in brief: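 Readout was luciferase luminescence, measured 12 min after detection reagent at room temperature. Beforehand, GLP-1R reporter HEK293 cells had sat 12 h, then received compounds for 24 hr at 37 deg C.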
On the % scale 0 is the no-effect control and ±100 the full control effect; potency means the concentration at half of the fitted maximal effect; tags describe the fitted curve by direction and shape.

Potency, inconclusive:
COc1ccccc1N1CCN(CC(O)COCCOc2ccc(Br)cc2)CC1 (configuration not stated) 11.2 µM [inhibitor, partial curve, poor fit]
Cc1cc(CNC(=O)COC(=O)c2ccc(Cl)c(N)c2)cc(C)c1O 14.1 µM [inhibitor, single point]
Cc1ccc(CSCCC(=O)N2CCN(c3cc(C)ccc3C)CC2)cc1 20 µM [inhibitor, single point]
COc1ccc(CCNC(=O)c2ccc(-c3ccc([N+](=O)[O-])cc3Cl)o2)cc1OC 7.08 µM [inhibitor, partial curve, poor fit]
COCCCNC(=O)c1sc2nc(C)c(C(=O)Nc3ccc(C)cc3C)c(-c3ccc(Br)cc3)c2c1N 1.58 µM [inhibitor, full curve, poor fit]
COc1ccc(-c2noc(CN(C(=O)Cc3ccc(C)cc3)C(C)C)n2)cc1 28.2 µM [inhibitor, single point]
Cc1cc(C)n(CC(O)COc2ccc(Cl)cc2Cl)n1 (configuration not stated) 20 µM [inhibitor, single point]
c1ccc(COc2cccc(-c3cc4nc(NCCc5ccncc5)ccn4n3)c2)cc1 20 µM [inhibitor, partial curve, poor fit]
CC(=O)c1ccc(OCC(=O)c2cc(C)n(-c3ccc4c(c3)OCO4)c2C)cc1 28.2 µM [inhibitor, single point]
CCOc1ccc(CSc2nc(C)cc(COC)c2C#N)cc1OCC 28.2 µM [inhibitor, single point]
COc1cc(CN2CCCC(C(=O)c3ccc(C(C)(C)C)cc3)C2)cc(OC)c1O (configuration not stated) 28.2 µM [inhibitor, partial curve, poor fit]
O=C(COc1ccccc1)NCC(c1ccco1)N1CCN(c2ccc(F)cc2)CC1 (configuration not stated) 11.2 µM [inhibitor, single point]
Cc1ccc(Nc2ccc(S(=O)(=O)N3CCOCC3)cc2[N+](=O)[O-])cc1C 14.1 µM [inhibitor, single point]
CCC/C(=N\NC(=O)c1csc(C)c1C)c1cccs1 6.31 µM [inhibitor, partial curve, poor fit]
O=C(Cn1cnc2cc([N+](=O)[O-])ccc2c1=O)NCc1ccc(Cl)cc1 28.2 µM [inhibitor, single point]
CCOc1ccc(NC(=S)N2CCN(S(=O)(=O)c3ccc(C)cc3)CC2)cc1 12.6 µM [inhibitor, partial curve, poor fit]
CNC(=S)N1N=C(c2ccc(OC)cc2)CC1c1ccc(Cl)cc1Cl (configuration not stated) 11.2 µM [inhibitor, partial curve, poor fit]
Cc1ccc(Cl)c(OCC(=O)NCC(c2cccs2)N2CCOCC2)c1 (configuration not stated) 22.4 µM [inhibitor, single point]
c1ccc(-n2nnnc2-c2cccc3ccccc23)cc1 1.26 µM [inhibitor, full curve, poor fit]
CCOC(=O)Cc1c(-c2cccc(Cl)c2)nc2c3ccccc3ccn12 10 µM [inhibitor, single point]
CN(C)S(=O)(=O)c1ccc(N2CCCC2)c(C(=O)N2CCN(S(=O)(=O)c3ccccc3F)CC2)c1 8.91 µM [inhibitor, partial curve, poor fit]
CC1(C)Cc2c(sc(NC(=O)c3ccc(S(=O)(=O)N4CCCCCC4)cc3)c2C(N)=O)C(C)(C)N1 14.1 µM [inhibitor, single point]
CCc1ccccc1NC(=O)c1cccc(NC(=O)/C=C/c2ccco2)c1 28.2 µM [inhibitor, single point]
CCOc1ccc(NC(=O)N2CCC(C(=O)c3ccc(F)cc3)CC2)cc1 6.31 µM [inhibitor, partial curve, poor fit]
Cc1cc(C)cc(-n2ncc3c2CCCC3NC(=O)c2ccccc2N2CCOCC2)c1 (configuration not stated) 7.94 µM [inhibitor, partial curve, poor fit]
CCCCn1nc(C(=O)NCC(c2cccs2)N2CCOCC2)c2ccccc2c1=O (configuration not stated) 28.2 µM [inhibitor, single point]
CCC1Sc2ccc(S(=O)(=O)CCC(=O)NCc3ccc(C)o3)cc2NC1=O (configuration not stated) 28.2 µM [inhibitor, single point]
CC(=O)n1c2c(c3ccccc31)OC(N)=C(C#N)C2c1cccc(Cl)c1Cl (configuration not stated) 2.24 µM [inhibitor, partial curve, poor fit]
COc1ccc(CCNC(=S)Nc2ccc(OC)cc2)cc1 28.2 µM [inhibitor, single point]
NNC(=O)CN1C(CN2CCOCC2)=Nc2ccc(Br)cc2C1c1ccccc1 (configuration not stated) 25.1 µM [inhibitor, partial curve, poor fit]
CC(=O)Nc1ccc(-c2ccnc3c2CC(C(=O)Nc2cccc(OC(F)(F)F)c2)O3)cc1 (configuration not stated) 8.91 µM [inhibitor, partial curve, poor fit]
COc1ccccc1/C=C1\SC(=S)N(C(C(=O)O)c2ccccc2)C1=O (configuration not stated) 10 µM [inhibitor, partial curve, poor fit]
O=C(NCc1cccnc1)c1ccc(Cn2cc(C(F)(F)F)ccc2=O)cc1 1.58 µM [inhibitor, partial curve, poor fit]
Cc1cc(N(C)Cc2ccccc2)nc(-c2ccccc2)n1 28.2 µM [inhibitor, single point]
COc1ccc(NC(=S)NC(NC(=O)CCl)C(Cl)(Cl)Cl)c([N+](=O)[O-])c1 (configuration not stated) 7.94 µM [inhibitor, partial curve, poor fit]
O=C(NCCC1=CCCCC1)c1[nH]c(C(F)(F)F)nc1-c1ccccc1 10 µM [inhibitor, partial curve, poor fit]
Cc1cccc(CSc2nc3c(c(-c4cccs4)c2C#N)CN(C)CC3)c1 5.01 µM [inhibitor, partial curve, poor fit]
COc1ccc2[nH]c(=O)c(CN(CC3CCCO3)S(=O)(=O)c3ccccc3)cc2c1 (configuration not stated) 28.2 µM [inhibitor, single point]
COc1ccc(CCN(C(=O)COc2ccccc2)c2nc(-c3ccccc3)cs2)cc1OC 10 µM [inhibitor, partial curve]
Cc1ccc(N(C(=O)Cn2nnc3ccccc32)C(C(=O)NCc2ccccc2)c2ccccn2)cc1 (configuration not stated) 2 µM [inhibitor, full curve, poor fit]
O=C(Nc1cccc(N=Cc2cc(Cl)cc(Br)c2O)c1)c1ccco1 12.6 µM [inhibitor, single point]
CCOC(=O)CC1(CCc2ccccc2)Oc2ccccc2N1S(=O)(=O)c1ccc(C)cc1 (configuration not stated) 31.6 µM [inhibitor, single point]
CC(C)(C)c1ccc(C(=O)CC(Sc2ccc(Cl)cc2)C(=O)O)cc1 (configuration not stated) 10 µM [inhibitor, partial curve, poor fit]
Cc1ccc(C)c(N2CCN(C(c3ccc(F)cc3)c3nnc(-c4ccccc4)o3)CC2)c1 (configuration not stated) 31.6 µM [inhibitor, single point]
Cc1ccc(NC(=O)c2ccco2)nc1 11.2 µM [inhibitor, single point]
Cc1ccccc1CSc1cn(CC(=O)N2CCCC2)c2ccccc12 28.2 µM [inhibitor, single point]

Potency, active:
CN(Cc1cnn(-c2ccccc2)c1)C(=O)c1cccc(S(=O)(=O)N(C)c2ccccc2)c1 10 µM
Cc1ccnc(NC(=O)c2cc(-c3ccc(Cl)s3)nc3ccccc23)c1 7.94 µM
COc1ccc(-c2csc(C(C)(O)c3cccc(OC)c3)n2)cc1 (configuration not stated) 10 µM

Potency, inactive:
COc1ccc(Nc2ncnc3ccccc23)cc1
Cc1ccc(C(=O)NCc2ccc(N3CCN(C(=O)OC(C)(C)C)CC3)cc2)cc1
CCC(CC)C(=O)NCc1nc2cccnc2n1Cc1ccc(F)cc1
CN(C)c1ccc(CNC(=O)CN2C(=O)CCn3nc(-c4cn(C)c5ccccc45)cc32)cc1
O=C(O)C1CC(Br)C(Br)CC1C(=O)O (configuration not stated)
COc1ccc(CNS(=O)(=O)c2ccc(F)c(C(=O)Nc3c(C)cc(C)cc3C)c2)cc1
CCc1ccc(C(=O)CSc2nc(-c3ccccc3)nc3c2CCCC3)cc1
Cc1ccc(CNC(=O)CN2C(=O)CSc3ccc(S(=O)(=O)N4CCCC4)cc32)cc1
CCOc1ccc(-c2cc(C(=O)N3CCN(c4ccc(C)cc4)C(C)C3)c3ccccc3n2)cc1 (configuration not stated)
COc1ccc2oc(C(=O)OCC(=O)Nc3ccc(OC)c(S(N)(=O)=O)c3)c(C)c2c1
O=C(NCc1ccco1)c1c[nH]c2ccc(S(=O)(=O)N3CCOCC3)cc2c1=O
CN(C)c1ccc(/C=N/N=C/c2ccccc2O)cc1

Activity change, negative = inhibition, inactive:
Fc1ccc(-n2cc(CNCCc3cccnc3)c(-c3ccccc3Cl)n2)cc1 4.39% [at 0.307 µM]
